Measurements reported in PubChem BioAssay AID504332 (National Center for Advancing Translational Sciences (NCATS), 2011).
Screen size: about 350,000 compounds; about 31,000 (8.9%) were called active. Inconclusive results, whose numbers are uncertain, are shown with a selection of clear calls. Calls follow the shape of the dose curve; as a rule, active = well fitted inhibition curve with a large enough effect; inconclusive = small, poorly fitted or top-dose-only effect; inactive = no such curve, though single readings can be large or run the other way. Potencies of inconclusive entries are doubtful fits and often do not repeat.
% is scaled to controls: 0 for no effect and ±100 for the full control effect; potency is read from the fitted curve at half-maximal effect; tags tell the direction and shape of the fitted curve.
Also: nearly all actives have a fitted effect of over 75% in size.

What follows are compounds tested against Histone-lysine N-methyltransferase EHMT2 (Homo sapiens) (UniProt Q96KQ7) (assay: qHTS Assay for Inhibitors of Histone Lysine Methyltransferase G9a). Conditions: G9a H3K9 monomethylation, AlphaScreen, 2 h; activity, negative = inhibition: at 59 µM (top of the series) unless noted.
Chain of UniProt Q96KQ7 (Q96KQ7 whole entry, looked up): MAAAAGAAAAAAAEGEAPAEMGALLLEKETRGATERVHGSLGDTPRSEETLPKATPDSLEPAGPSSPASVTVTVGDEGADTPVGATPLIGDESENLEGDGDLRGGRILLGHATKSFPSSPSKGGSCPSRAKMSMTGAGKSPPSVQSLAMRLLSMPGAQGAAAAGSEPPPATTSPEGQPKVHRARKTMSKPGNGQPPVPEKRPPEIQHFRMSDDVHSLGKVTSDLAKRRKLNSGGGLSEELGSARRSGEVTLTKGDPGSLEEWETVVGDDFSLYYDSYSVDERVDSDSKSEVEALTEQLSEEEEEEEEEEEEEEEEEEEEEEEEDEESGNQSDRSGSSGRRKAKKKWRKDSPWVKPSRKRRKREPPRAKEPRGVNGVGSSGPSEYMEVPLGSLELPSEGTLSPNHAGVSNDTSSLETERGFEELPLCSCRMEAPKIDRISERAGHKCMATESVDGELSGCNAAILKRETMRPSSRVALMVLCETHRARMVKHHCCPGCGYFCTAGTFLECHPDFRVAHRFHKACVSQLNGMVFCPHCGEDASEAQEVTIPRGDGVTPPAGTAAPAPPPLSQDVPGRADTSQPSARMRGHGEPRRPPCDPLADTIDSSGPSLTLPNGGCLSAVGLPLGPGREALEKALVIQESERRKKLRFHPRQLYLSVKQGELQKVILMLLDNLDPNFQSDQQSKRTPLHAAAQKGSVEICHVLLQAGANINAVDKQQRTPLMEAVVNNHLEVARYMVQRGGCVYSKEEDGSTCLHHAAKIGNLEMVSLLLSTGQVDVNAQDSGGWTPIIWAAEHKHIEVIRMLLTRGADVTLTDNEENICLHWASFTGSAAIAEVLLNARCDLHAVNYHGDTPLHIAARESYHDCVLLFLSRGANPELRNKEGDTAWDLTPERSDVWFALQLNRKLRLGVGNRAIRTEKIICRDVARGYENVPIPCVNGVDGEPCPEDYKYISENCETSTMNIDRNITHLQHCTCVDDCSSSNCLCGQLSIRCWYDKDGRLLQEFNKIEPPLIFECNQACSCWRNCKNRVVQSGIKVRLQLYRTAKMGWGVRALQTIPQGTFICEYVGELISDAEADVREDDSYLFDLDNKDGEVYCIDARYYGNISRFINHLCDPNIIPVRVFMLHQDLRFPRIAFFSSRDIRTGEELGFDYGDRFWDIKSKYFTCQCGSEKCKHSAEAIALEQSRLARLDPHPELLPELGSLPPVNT
Summary of the method: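 Signal arises when biotinylated H3K9 peptide, once monomethylated, bridges streptavidin donor and antibody-captured acceptor beads. Enzyme at 20 nM was preincubated 15 min with test compounds; peptide 500 nM and SAM 20 uM then reacted for 2 h.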
For FC(F)(F)c1cccc(-c2nnc3ccc(C(F)(F)F)cn23)c1, the Potency was active: 35.5 µM.
Cc1cccn2cc(-c3ccccc3)nc12 was tested, and the Potency was inconclusive: 79.4 µM [inhibitor, partial curve, poor fit].
In the case of COCCn1nnnc1C(c1ccccc1)N1CCN(C)CC1 (configuration not stated), the Potency is reported as inconclusive: 35.5 µM [inhibitor, single point].
For CCC(c1nnnn1Cc1ccco1)N(CCc1ccccc1)Cc1cc2cccc(C)c2[nH]c1=O (configuration not stated), the Potency was inconclusive: 4.47 µM [inhibitor, single point].
COc1cc2c(cc1OC)CN(C(=O)/C=C/c1cccs1)CC2 was tested, and the Potency was inconclusive: 89.1 µM [inhibitor, partial curve, poor fit].
For COc1ccccc1NC(=O)C1=C(C)NC(SCC(=O)c2ccccc2)=C(C#N)C1c1ccco1 (configuration not stated), the activity, negative = inhibition was inconclusive: -110% [inhibitor].
In the case of O=C(c1ccc(S(=O)(=O)N2CCC(c3nc4ccccc4s3)CC2)cc1)N1CCOCC1, the Potency is reported as active: 39.8 µM.
In the case of Cc1ccc(C)c(NC(=O)c2cnn(-c3ccc(F)cc3F)c2C2CCNCC2)c1, the Potency is reported as inconclusive: 12.6 µM [inhibitor, partial curve].
With CC(=O)C1=C(O)C(=O)N(Cc2ccccc2)C1c1ccccc1F (configuration not stated) the Potency was inconclusive: 8.91 µM [inhibitor, partial curve, poor fit].
In the case of CN(C)CCCNC(=O)C(=O)NCC(c1cccs1)S(=O)(=O)c1ccc(F)cc1 (configuration not stated), the “activity, negative = inhibition” value is reported as inactive: -42.4% [at 102 µM].
In the case of O=C(NCCNc1ccc([N+](=O)[O-])cc1)c1ccccc1Br, the Potency is reported as inconclusive: 39.8 µM [inhibitor, single point].
With COc1ccc(S(=O)(=O)N2CCN(C(=O)c3cccnc3)CC2)cc1OC the Potency was inconclusive: 100 µM [inhibitor, single point].
For Cc1cc(SCC(=O)OCC(=O)N2CCN(C(=O)c3ccco3)CC2)c(C)cc1Br, the activity, negative = inhibition was inconclusive: -75.8% [inhibitor].
For N=c1n(CCN2CCCCC2)c2ccccc2n1CC(=O)c1cccc([N+](=O)[O-])c1, the Potency was active: 44.7 µM.
In the case of O=C(CSc1ncc2c(n1)-c1ccccc1N(Cc1ccc(Cl)cc1)S2(=O)=O)c1ccc(Cl)cc1, the “activity, negative = inhibition” value is reported as inactive: 0.773%.
For CCOC(=O)C1=NOC2COC3(CCN(c4ncccn4)CC3)OCC12 (configuration not stated), the “activity, negative = inhibition” value was inactive: -2.03% [at 102 µM].
Cc1cccc(CSc2nnc(-c3cnccn3)n2C)c1 was tested, and the “activity, negative = inhibition” value was inactive: -5.85% [at 102 µM].
With COc1cc2nc(CN3CCN(C(C)=O)CC3)[nH]c(=O)c2cc1OC the “activity, negative = inhibition” value was inactive: -41.8% [at 102 µM].
With CC(=O)NC(Cc1ccc(C(C)C)cc1)C(=O)NC1CCN(C(=O)c2cccc(C)c2)CC1 (configuration not stated) the Potency was inconclusive: 89.1 µM [inhibitor, partial curve, poor fit].
In the case of CCCCC(=O)c1ccc(O)cc1, the Potency is reported as inconclusive: 3.16 µM [inhibitor, single point].
C=CCN1C(=O)C(O)(CC(=O)c2ccc(-n3cccc3)cc2)c2ccccc21 (configuration not stated) was tested, and the Potency was inconclusive: 14.1 µM [inhibitor, partial curve, poor fit].
With COc1ccccc1-n1c(-c2ccc(F)cc2)coc1=O the “activity, negative = inhibition” value was inactive: -32.6% [at 102 µM].
With Cc1ccc(NS(=O)(=O)c2ccc(OCC(=O)N3CCOCC3)cc2)cc1 the Potency was inconclusive: 22.4 µM [inhibitor, partial curve, poor fit].
With CN(Cc1ccccc1)Cc1c(F)cccc1F the Potency was active: 11.2 µM.
In the case of COc1cccc(Nc2nc(NCC3CCCO3)c3ccccc3n2)c1 (configuration not stated), the Potency is reported as active: 44.7 µM.
With COc1cc(C(=O)Oc2cc(N)n(S(=O)(=O)c3ccc(F)cc3)n2)cc(OC)c1OC the Potency was inconclusive: 79.4 µM [inhibitor, single point].
In the case of CCN1CCCc2cc(CN(CCN3CCOCC3)C(=S)Nc3cc(F)cc(F)c3)ccc21, the Potency is reported as active: 15.8 µM.
With COc1ccc(CNC(=O)CCCC(=O)n2nc(C)c3ccccc32)cc1 the Potency was inconclusive: 89.1 µM [inhibitor, single point].
With CCC1CN(C(=O)N2CCC(C(=O)NCCCc3ccccc3)CC2)c2cc(C)ccc2O1 (configuration not stated) the Potency was inconclusive: 11.2 µM [inhibitor, partial curve].
In the case of O=C(Cn1ncc2c1-c1ccccc1OC2)Nc1cccc(Cl)c1, the Potency is reported as inconclusive: 100 µM [inhibitor, single point].
In the case of Nn1c(Cc2cccc3ccccc23)nnc1SC1CCOC1=O (configuration not stated), the Potency is reported as inconclusive: 2.24 µM [inhibitor, partial curve, poor fit].
With CC(=O)Nc1ccc(NC(=O)CSc2nnc(NC(=O)C3CC(=O)N(c4ccccc4)C3)s2)cc1 (configuration not stated) the Potency was active: 39.8 µM.
For COc1ccc(/C=C/C(=O)c2ccc(OC)cc2OC)c(OC)c1, the “activity, negative = inhibition” value was inactive: -8.85%.
With CCOC(=O)C1Nc2ccc(Br)cc2C2C=CCC12 (configuration not stated) the Potency was active: 3.55 µM.
For CC1CCCN(CCCNC(=O)c2nn(C)c3c2CS(=O)(=O)c2ccccc2-3)C1 (configuration not stated), the “activity, negative = inhibition” value was inactive: 34.7% [at 102 µM].
With CS(=O)(=O)N1CCC2(CCN(c3ccccc3)CC2)CC1 the activity, negative = inhibition was inactive: 4.1% [at 12.7 µM].
In the case of Cc1ccc(Cl)cc1NC(=O)c1sc2nc(C)c(C)c(C)c2c1N, the Potency is reported as inconclusive: 8.91 µM [inhibitor, partial curve].
For CCOC(=O)c1ccccc1NC(=O)N(Cc1ccc(CC)cc1)Cc1cn[nH]c1-c1ccc(OC)cc1, the “activity, negative = inhibition” value was inactive: 8.01%.
With CCCC(C(=O)NCc1ccco1)N(C(=O)CNS(=O)(=O)c1ccc(Cl)cc1)C1CCCC1 (configuration not stated) the Potency was inconclusive: 35.5 µM [inhibitor, single point].
For CC1CCCCN1C(=S)NC(=O)c1ccco1 (configuration not stated), the Potency was inconclusive: 7.08 µM [inhibitor, single point].
With Cc1cc(NC(=O)Cn2cc(C(F)(F)F)cc(Cl)c2=O)no1 the Potency was inconclusive: 28.2 µM [inhibitor, single point].
With CCOC(=O)c1c(NC(=O)c2ccn(CC)n2)sc2c1CCC2 the “activity, negative = inhibition” value was inactive: -13.2% [at 102 µM].
With COc1cccc(CC2(CO)CCCN(Cc3ccc(C)s3)C2)c1 (configuration not stated) the Potency was inconclusive: 89.1 µM [inhibitor, single point].
For COc1ccc(NC(=O)CCS(=O)(=O)c2cc3c(cc2C)NC(=O)CO3)cc1Cl, the “activity, negative = inhibition” value was inactive: -2.17%.
In the case of O=C(c1ccc(Br)cc1)c1cc([N+](=O)[O-])ccc1N1CCOCC1, the Potency is reported as inconclusive: 31.6 µM [inhibitor, partial curve, poor fit].
For Cc1cccc(NC(=S)NNC(=O)CCn2nc(C)c([N+](=O)[O-])c2C)c1, the Potency was inconclusive: 31.6 µM [inhibitor, single point].
O=c1[nH][nH]cc1C=Nc1ccc(Oc2ccccc2)cc1 was tested, and the Potency was inconclusive: 35.5 µM [inhibitor, partial curve, poor fit].
Cc1ccc(C2N(c3cccc(Cl)c3)C(=O)C3CCCN32)o1 (configuration not stated) was tested, and the Potency was inconclusive: 100 µM [inhibitor, single point].
In the case of O=c1[nH]c2ccc(NCc3ccc(F)cc3)cc2[nH]1, the Potency is reported as inconclusive: 56.2 µM [inhibitor, partial curve, poor fit].
With Cc1[nH]c2ccccc2c1C1C(c2ccccc2)=NN=C(C(C)C)N1O (configuration not stated) the Potency was active: 6.31 µM.
With CC1CN(C(=O)c2nn(C)cc2[N+](=O)[O-])CC(C)O1 (configuration not stated) the “activity, negative = inhibition” value was inactive: 15.2%.
With COc1cc2c(cc1NC(=O)COC(=O)C1CC(=O)N(Cc3ccco3)C1)oc1ccccc12 (configuration not stated) the Potency was inconclusive: 79.4 µM [inhibitor, partial curve, poor fit].
For Cc1ccc(C(=O)Nc2cccc([N+](=O)[O-])c2)cc1S(=O)(=O)Nc1cccc(C(=O)O)c1, the Potency was inconclusive: 50.1 µM [inhibitor, partial curve].
In the case of O=C1OC(c2ccccc2)=N/C1=C\C=C\c1ccccc1[N+](=O)[O-], the Potency is reported as inconclusive: 39.8 µM [inhibitor, single point].
CC(NC(=O)c1ccccc1NC(=O)CN1CCN(c2ccccc2O)CC1)c1ccccc1 (configuration not stated) was tested, and the Potency was inconclusive: 6.31 µM [inhibitor, single point].
For Cn1cc(C[C@H](C(=O)O)N2C(=O)c3ccc(C(=O)O)cc3C2=O)c2ccccc21, the activity, negative = inhibition was inactive: -1.03% [at 12.7 µM].
Cc1ccc(-c2c(CN3CCN(c4cccc(C)c4C)CC3)csc2C)cc1 was tested, and the Potency was inconclusive: 25.1 µM [inhibitor, partial curve, poor fit].
For Cc1cc(O)c(C=O)c2c1C(=O)Oc1c(CO)c(O)c3c(c1O2)C(O)OC3=O (configuration not stated), the Potency was inconclusive: 3.55 µM [inhibitor, single point].
In the case of OC1CCN(c2ncnc3c2nnn3Cc2c(F)cccc2Cl)CC1, the Potency is reported as inconclusive: 1.78 µM [inhibitor, partial curve, poor fit].
With Cc1cc(NC(=O)CCS(=O)(=O)c2ccc(F)cc2)no1 the Potency was inconclusive: 89.1 µM [inhibitor, single point].
In the case of O=C(/C=C/NCc1cccnc1)c1ccc(-c2ccccc2)cc1, the Potency is reported as inconclusive: 50.1 µM [inhibitor, partial curve, poor fit].
For COc1ccccc1/C=C/C=N/n1c(-c2ccc(C)cc2)n[nH]c1=S, the Potency was inconclusive: 1.12 µM [inhibitor, full curve, poor fit].
CCOC(=O)c1c(C)[nH]c(N=Nc2cccc(C)c2)c1C was tested, and the Potency was inconclusive: 10 µM [inhibitor, partial curve, poor fit].
In the case of COC(=O)c1ccc2c(c1)sc(=NC(=O)CCS(=O)(=O)c1ccccc1)n2C, the Potency is reported as inconclusive: 79.4 µM [inhibitor, single point].
CCCc1cc(=O)n2[nH]c(NCc3ccc(Cl)cc3Cl)nc2n1 was tested, and the Potency was inconclusive: 39.8 µM [inhibitor, partial curve, poor fit].
For O=C(Nc1ccc(N2CCN(C(=O)c3ccco3)CC2)c(Cl)c1)c1cccs1, the Potency was inconclusive: 31.6 µM [inhibitor, partial curve, poor fit].
With O=C(NC1CCCCC1)NC1CC2CCC(C1)N2C(=S)NCc1ccco1 (configuration not stated) the “activity, negative = inhibition” value was inactive: -25.7%.
